The values below come from ChEMBL document CHEMBL1201862, “PubChem BioAssay data set” (2004).

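Compound exposure: 48 hours, 5 concentrations, 96-well plates. Here, GI50 denotes the concentration required for 50% inhibition of growth.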 The source made the active and inactive calls. Cut-off read from the data, not from the text of the source: active = GI50 up to about 1.1 µM and inactive = higher.

The experiment deals with NCI-H322M. Briefly: NCI anticancer screen, dose series, 48 h.
Take `COc1cc(/C=C2\Cc3ccccc3C2=O)cc(OC)c1OC`: the GI50 is inactive: > 100 µM. For `COc1cc2c(cc1OCCCOS(C)(=O)=O)N=C[C@@H]1CCCN1C2=O`, the GI50 was inactive: > 100 µM. Then `CN(Cc1cnc2nc(N)nc(N)c2n1)c1ccc(C(=O)NC(CCC(=O)O)C(=O)O)c2ccccc12` (configuration not stated), with active: 0.01 µM; and `Cc1ccc(S(=O)(=O)OC2CCN(C)CC2)cc1`, with inactive: > 100 µM; and `COC(=O)c1ccc(CCc2cc(O)ccc2O)cc1`, with inactive: 44.1 µM. For the molecule `CC(O)/C=C/C1OC(=O)CC1Nc1ccc(C=O)cc1` (configuration not stated), the GI50 was inactive: > 100 µM.

Turning to `CC1=C(Br)C(=O)C(C)=C(Br)C1=O.Cc1c(O)c(Br)c(C)c(O)c1Br`, the GI50 was inactive: 17.8 µM. Take `CCN1C/C(=C\c2cc(OC)c(OC)c(OC)c2)C2=NN(c3ccccc3)C(c3cc(OC)c(OC)c(OC)c3)C2C1` (configuration not stated): the GI50 was inactive: 5.85 µM. In the case of `N=C(N)N/N=C/c1c(-c2ccc(Cl)c([N+](=O)[O-])c2)nc2sccn12`, the GI50 was inactive: 1.58 µM.

Consider `CCCCN(CCCC)C(=O)/C(CC(=O)c1cccc2ccccc12)=N\NC(=O)c1cc2ccccc2cc1O`, for which the GI50 was inactive: 22.8 µM. As to `C/C(CC1C2CCCC1C2)=N\NC(N)=O` (configuration not stated), the GI50 was inactive: > 100 µM. `NCC(Cl)C(O)c1c[nH]c(N)n1` (configuration not stated): the GI50 is inactive: 1.46 µM.

`CC1(C)CC(=O)C2=C(C1)NC(=S)C(C#N)C2c1ccccc1` (configuration not stated): the GI50 was inactive: > 100 µM.

`COc1ccc(OC)c(NC(=O)C(=O)NNC(=O)c2sc(NNC(C)=O)nc2C)c1`: the GI50 is inactive: 56.1 µM. For the molecule `COC(=O)/C=C/N1CC1`, the GI50 is inactive: > 10 µM.

Regarding `CC(=O)NS(=O)(=O)c1ccc(NC(=O)COC(=O)c2cccc3c(=O)c4ccccc4[nH]c23)cc1`, the GI50 is inactive: > 100 µM. On to `CCN1CCC(O)(c2ccc(Oc3ccc(C)cc3)cc2)C(C(=O)c2ccc(Oc3ccc(C)cc3)cc2)C1` (configuration not stated), for which the GI50 was inactive: 13.3 µM. In the case of `Cc1cc(C)nc(/C(=N\NC(N)=O)C(=O)Nc2nc3ccc(C)cc3s2)c1`, the GI50 was inactive: > 100 µM. Regarding `COC(=O)C1=CCC[C@H]2[C@@]1(COC(C)=O)CC[C@@H](C)[C@]2(C)CC(=O)c1ccoc1`, the GI50 was inactive: 28.6 µM.

For the molecule `CC(C)n1c2c([n+](C)c1/C=C/c1ccccc1)C(=O)c1ccccc1C2=O`, the GI50 is active: 0.405 µM. With `Brc1ccc2[nH]cc(-c3csc(-c4c[nH]c5ccc(Br)cc45)n3)c2c1`, the GI50 is inactive: 1.91 µM. Turning to `Cn1ncc2ccc3[nH]c4ccccc4c(=O)c3c21`, the GI50 was inactive: 31.7 µM. On to `O=C1NC(=O)/C(=C/c2ccc(S(=O)(=O)N/N=C/c3ccccc3)cc2)N1`, for which the GI50 was inactive: > 100 µM. For the molecule `CN1CCN(c2c(Cl)cc(Cl)c3[nH]c4ccccc4c(=O)c23)CC1`, the GI50 was inactive: 8.71 µM. Regarding `C[C@@H]1C(=O)CC2C(C)(C)CCC[C@]2(C)[C@@]12CC[C@]1(C=COC1)O2` (some centres not stated), the GI50 is inactive: 74.5 µM. `c1ccc(COC2C3COC(O3)C(OCc3ccccc3)C2OCc2ccccc2)cc1` (configuration not stated): the GI50 is inactive: > 100 µM. Turning to `O=C(CSSCC(=O)OCCS(=O)(=O)Nc1ccc(Br)cc1)OCCS(=O)(=O)Nc1ccc(Br)cc1`, the GI50 is inactive: 31.4 µM. Turning to `CNC(=S)N/N=C(\C)c1nc2cccnc2[nH]1`, the GI50 is inactive: 38.1 µM.

Take `CC1=NN(c2nc(N)nc(-c3cc4ccccc4oc3=N)n2)C(C)(C)C1`: the GI50 was inactive: 17.2 µM. As to `CCOC(=O)CCNC(=O)c1cc(C)cc2c1Oc1c(cc(C)cc1C(=O)NCCC(=O)OCC)S2`, the GI50 was inactive: > 100 µM.

For the molecule `COCCOCCOCCOc1ccc(C(C#N)N(CCc2ccccc2)C(=O)c2cc(C(=O)N(CCc3ccccc3)C(C#N)c3ccc(OCCOCCOCCOC)cc3)cc(C(=O)N(CCc3ccccc3)C(C#N)c3ccc(OCCOCCOCCOC)cc3)c2)cc1` (configuration not stated), the GI50 was inactive: > 100 µM. `O=C1CC(c2ccc[nH]2)=NN1c1ccccc1`: the GI50 is inactive: > 100 µM. Regarding `COc1ccc(/C=N/NC(=O)c2ccccc2Nc2ccccc2C(=O)N/N=C/c2ccc(OC)cc2)cc1`, the GI50 is inactive: > 100 µM. As to `O=C(CC1(O)C(=O)Nc2c(Cl)ccc(Cl)c21)c1ccco1` (configuration not stated), the GI50 was inactive: 44.8 µM.

With `CCCCCCCCCCCCCCCC(=O)OCC(C[As](=O)(O)O)OC(=O)CCCCCCCCCCCCCCC` (configuration not stated), the GI50 is inactive: > 100 µM. On to `C/C(=C/c1ccccc1)CN(C(=O)/C=C\Sc1ccccc1)C(C)(C)C`, for which the GI50 is inactive: > 100 µM. Take `c1ccc2c(c1)ccn1ccc3c4ccccc4nc-3c21`: the GI50 is active: 0.238 µM. For `OC1NC2Nc3ccccc3NC2NC1O` (configuration not stated), the GI50 is inactive: > 100 µM.

Consider `CC(C)=NOC(=O)Nc1cccc2c1OCO2`, for which the GI50 was inactive: > 100 µM. Consider `C=CC1ON(C)CCc2cc(OC)c(OC)cc21` (configuration not stated), for which the GI50 is inactive: > 100 µM.

Take `CS(=O)(=O)c1nc(-c2cc3c(c(S(C)(=O)=O)n2)CCC3)cc2c1CCC2`: the GI50 is inactive: > 100 µM. Consider `O=C(O)c1c[nH]c2c(Sc3ccccc3)nccc2c1=O`, for which the GI50 was inactive: 96.6 µM. The value for `Cc1nc(-n2nc(-c3ccccc3)cc2-c2ccccc2)sc1C(=O)/C=C/c1ccc([N+](=O)[O-])cc1` was inactive: 29 µM; that for `CC1=C2O[B-](c3ccccc3)(c3ccccc3)[O+]=C2C=CN1` was inactive: 88.1 µM; that for `CN(C)CC/C(=N\Nc1ccc([N+](=O)[O-])cc1)c1ccccc1` was inactive: 15.2 µM. `Clc1ccc(-c2c(C3=NCCN3)nnn2-c2ccccc2)cc1`: the GI50 is inactive: > 100 µM. Then `Cc1cc(N(CCC#N)CCC#N)ccc1/C=C(\NC(=O)/C=C/c1ccccc1)C(=O)Nc1ccccc1Cl`, with inactive: > 100 µM. Take `CCOP(=O)(O)CC1OC(CO)C(O)C1O` (configuration not stated): the GI50 is inactive: > 100 µM. Then `N/C(=N/O)N/N=C\c1cc(Cl)cc(Cl)c1O`, with inactive: 8.99 µM.

As for `O=C(O)c1cc(Sc2ccc([N+](=O)[O-])c(C(=O)O)c2)ccc1[N+](=O)[O-]`, the GI50 was inactive: > 100 µM. On to `CC(=O)NC1=C(NCC(C)(C)C)C(=O)c2ccccc2C1=O`, for which the GI50 is inactive: > 100 µM. Take `CN(C)/N=N/c1nc2c(c(=O)n(C)c(=O)n2C)n1CC1CO1` (configuration not stated): the GI50 was inactive: 17.3 µM.

In the case of `CC1CC(C)C(C(O)CC2CC(=O)N(c3ccccc3)C(=O)C2)C(O)C1` (configuration not stated), the GI50 was inactive: > 100 µM. For the molecule `Nc1nc(N)c(CCCCc2ccccc2)c(/C=C/c2ccc([N+](=O)[O-])cc2)n1`, the GI50 is inactive: 4.78 µM.

On to `CN1N(c2ccccc2)C(=O)C2=NC=C(C(=O)c3ccccc3)C(=N)C21C` (configuration not stated), for which the GI50 was inactive: > 100 µM.

As to `CC(C)N(C(=O)C12C3C4C1C1C2C3C41C(=O)O)C(C)C` (configuration not stated), the GI50 is inactive: > 100 µM.

`COc1ccc(/C=C2/SC(c3c(O)ccc4ccccc34)N(NC(=O)CCCCCCCCC(=O)NN3C(=O)/C(=C\c4ccc(OC)c(OC)c4)SC3c3c(O)ccc4ccccc34)C2=O)cc1OC` (configuration not stated): the GI50 was active: 0.434 µM.

With `COc1ccc2nc3c([N+](=O)[O-])ccc4c3c(c2c1)N(CCCN(C)C)C(=S)N4CCCN(C)C`, the GI50 is inactive: 4.45 µM. As to `O=[N+]([O-])c1c(O)c2nonc2c2nn(-c3ccccc3)nc12`, the GI50 is inactive: 68.1 µM. For the molecule `O=C(/C=C\c1ccccc1)Oc1ccc(/C=C2\CCCCC2=O)cc1`, the GI50 was inactive: > 100 µM. Turning to `Cc1c2ccccc2c(C2C3C(=O)N(c4ccc(Br)cc4)C(=O)C3ON2C(C(N)=O)c2ccccc2)c2ccccc12` (configuration not stated), the GI50 was inactive: 18.6 µM. For `COc1cc(-c2cc(-c3ccccc3)nc(-c3c(OC)ccc4c(C)cc(=O)oc34)c2)cc(OC)c1OC`, the GI50 is inactive: > 100 µM. Then `Cc1cc2c(ccc[n+]2[O-])[n+]([O-])c1`, with inactive: > 100 µM. For the molecule `C=CCN(c1cc(OCc2ccccc2)c2[nH]cc(C)c2c1)S(C)(=O)=O`, the GI50 is inactive: 33.9 µM. As for `O=C(/C=C\c1ccccc1)N1CCc2ccccc2C1`, the GI50 is inactive: > 100 µM. As for `COC(=O)Nc1nc(=O)c2cc(OC)c(OC)cc2[nH]1`, the GI50 is inactive: 56.9 µM. The value for `N=C(N)N/N=C\c1ccc(C2CCNCC2)cc1` was inactive: > 100 µM; that for `CCC(=O)NC(Nc1cccc(F)c1C)(C(F)(F)F)C(F)(F)F` was inactive: > 100 µM; that for `NC1=NC(c2ccccc2)CC(c2cc(Cl)ccc2O)=N1` (configuration not stated) was inactive: 20 µM. Turning to `Cc1cccc2c(N)c3cccc(C(=O)NCCCNCCN)c3nc12`, the GI50 was inactive: 4.45 µM.

For `O=C1/C(=C\c2ccc(Cl)cc2Cl)Sc2scc(-c3ccc(O)c(O)c3)[n+]21`, the GI50 was inactive: 17.7 µM. Turning to `O=C1c2cccc3c(Cl)ccc(c23)C(=O)N1CCCN1CCN(CCCN2C(=O)c3cccc4c(Cl)ccc(c34)C2=O)CC1`, the GI50 is inactive: > 100 µM. As to `COC(=O)C1CC2(C)C=CC1N(C(=O)OCc1ccccc1)C2` (configuration not stated), the GI50 was inactive: > 100 µM. Then `NNC1=N/C(=C\c2ccccc2O)C(=O)N1`, with inactive: 44.4 µM; and `COc1ccccc1Nc1nc(NNC(=O)Cc2ccccc2)nc(NNC(=O)c2ccncc2)n1`, with inactive: > 10 µM; and `O=C(Cc1nc2ccc([N+](=O)[O-])cc2nc1O)C(=O)Nc1cc(Cl)c(Cl)cc1Cl`, with inactive: > 100 µM. Take `O=[N+]([O-])c1ccc2nc(Cl)n[n+]([O-])c2c1`: the GI50 was inactive: 18.3 µM.

For the molecule `CCC(=O)C(C)C(=O)C(=O)C(=O)OC` (configuration not stated), the GI50 is inactive: > 100 µM.

With `COC1C(OC(N)=O)C(O)C(Oc2ccc3c(O)c(NC(=O)c4ccc(O)c(CC=C(C)C)c4)c(=O)oc3c2C)OC1(C)C` (configuration not stated), the GI50 was inactive: > 100 µM. For the molecule `O=c1c(C(c2ccc(/C=C/c3ccccc3)cc2)c2c(O)oc3ccccc3c2=O)c(O)oc2ccccc12`, the GI50 was inactive: 37 µM. `CCN(CC)CCNC(=O)c1ccc([N+](=O)[O-])cc1OC`: the GI50 was inactive: > 100 µM. Take `Sc1nn2c(COc3ccc(Cl)cc3)nnc2s1`: the GI50 was inactive: > 100 µM.
